From PubChem BioAssay AID686979 (National Center for Advancing Translational Sciences (NCATS), 2013)
“And” between values parts separate entries of the source, which are not always exact repeats. Equal entries are not always repeated. The campaign covered roughly 420,000 compounds. About 50,000 (12%) were called active. This list was built around the results that the source calls inconclusive (neither active nor inactive); the mix of calls is not that of the screen. The call rests on the fitted dose curve; in most records, active means well fitted inhibition curve with a large enough effect; inconclusive means small, poorly fitted or top-dose-only effect; inactive means flat fitted curve, though single readings scatter. Where the call is inconclusive, the potency comes from a doubtful curve fit.

Assay: qHTS for Inhibitors of human tyrosyl-DNA phosphodiesterase 1 (TDP1): qHTS in cells in presence of CPT; further: nearly all actives have a fitted effect of over 55% in size
Conditions: chicken DT40 Tdp1-/-;hTDP1 cells + 20 nM CPT, ATP luminescence, 48 h; activity change, negative = growth inhibition: at 46.2 µM (top of the series) unless noted
In short: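 Chicken DT40 Tdp1-/- cells stably complemented with human TDP1 were seeded at 400 cells/well in medium containing 20 nM camptothecin, exposed to pin-transferred compounds, and grown at 37 °C for at least 48 hr. Viability was read as ATP luminescence.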
On the % scale 0 is the no-effect control and ±100 the full control effect; potency means the concentration at half of the fitted maximal effect; tags describe the fitted curve by direction and shape.

Structure (SMILES) | Potency | activity change, negative = growth inhibition
COc1ccc(N2CCN(C(=O)Cn3c(=O)c4cccn4c4cccnc43)CC2)cc1 | inconclusive: 32.6 µM [inhibitor, single point] | –
COc1cccc(CNS(=O)(=O)c2ccc3c(c2)CC(C)N3C(=O)C2CCC2)c1 (stereo not given) | active: 5.8 µM and active: 7.31 µM | –
CN(CCOc1ccccc1)C(=O)c1cc([N+](=O)[O-])cc([N+](=O)[O-])c1 | inactive | –
Cc1ccc(C(C)(C)C)cc1S(=O)(=O)Nc1cccc(S(=O)(=O)NC2=NCCC2)c1 | inactive | –
Cn1ccnc1Sc1ccc(C=O)cc1[N+](=O)[O-] | inactive | –
O=C(CN1CCN(c2ccccc2F)CC1)c1ccc2cc[nH]c2c1 | inconclusive: 29.1 µM [inhibitor, single point] | –
CCn1c(CNS(=O)(=O)c2ccc(Br)cc2)n[nH]c1=S | inconclusive: 6.51 µM [inhibitor, partial curve] | –
Cc1cc(C)cc(CSc2ccc(S(=O)(=O)N3CCCC3)cn2)c1 | – | inconclusive: -37.1% [inhibitor]
COc1ccc(/C=N/NC(=O)c2ccccc2Cl)cc1CSc1nc2ccccc2s1 | active: 5.8 µM | –
CCc1cccc(C)c1NC(=S)N(CCN(C)C)C(C)c1cccnc1 (stereo not given) | inactive | –
C/C(=N\NC(=O)c1ccccc1)c1cc2cc([N+](=O)[O-])ccc2oc1=O | inconclusive: 29.1 µM [inhibitor, single point] | –
O=C(NCc1cccc(Cl)c1)c1cc2c(s1)-c1ccccc1SC2 | inactive | –
N#Cc1c(-c2ccccc2)c(C#N)c2nc3ccccc3n2c1N | inconclusive: 7.31 µM [inhibitor, single point] | –
CN1C(=O)/C(=C/c2ccccc2OCc2cccc(F)c2)N(C)C1=S | inconclusive: 23.1 µM [inhibitor, partial curve] | –
C[C@@H]1NS(=O)(=O)[C@H]2C[C@@H]3C=C[C@]2(O3)[C@H]1OC(=O)Nc1ccc(C(F)(F)F)cc1[N+](=O)[O-] | inconclusive: 17.8 µM [inhibitor, single point] and inconclusive: 20.6 µM [inhibitor, single point] | –
Cn1c(-c2cc(Cl)ccc2O)nc2c1c(=O)[nH]c(=O)n2Cc1ccccc1 | active: 18.4 µM | –
COc1ccccc1N1CCN(C(=O)c2ccc(CN3CCOCC3)cc2)CC1 | inconclusive: 25.9 µM [inhibitor, single point] | –
O=C1c2cccc3c2C2(O)c4c1cccc4C(=O)c1cccc(c12)C3=O | inconclusive: 2.59 µM [inhibitor, full curve] | –
O=C(c1cc2nc(-c3cccs3)cc(C(F)(F)F)n2n1)N1CCCc2ccccc21 | active: 18.4 µM | –
O=C(Cn1c(=O)n(-c2ccc(Cl)cc2)c(=O)c2c3c(sc21)CCCCC3)Nc1cccc(Cl)c1 | inconclusive: 29.1 µM [inhibitor, single point] | –
CC(C)Cc1ccc(-c2cc3nc(NCc4cccc(Cl)c4)ccn3n2)cc1 | active: 20.6 µM | –
COc1ccc(C)cc1NC(=O)C(=O)NCC(c1cccnc1)N1CCN(c2ccccc2F)CC1 (stereo not given) | inconclusive: 23.1 µM [inhibitor, single point] | –
CCOC(=O)C1CCN(c2c(NCCCN(CC)c3ccccc3)c(=O)c2=O)CC1 | inactive | –
CN1C(=O)C(C)(C)c2cc(S(=O)(=O)NCC3CCC(C(=O)NCc4ccccc4)CC3)ccc21 (stereo not given) | – | inconclusive: -31.8% [inhibitor]

Structure (SMILES) | Potency | activity change, negative = growth inhibition
Cc1ccccc1C(=O)Nc1nnc(CC(=O)N/N=C/c2ccncc2)s1 | inactive | –
O=Cc1ccc(/C=C2\C=Cc3ccccc32)cc1 | active: 5.62 µM | –
COc1ccc(CNC(=O)CCc2ccc(S(=O)(=O)N3CCCCCC3)cc2)cc1 | inconclusive: 18.4 µM [inhibitor, partial curve] | –
COc1ccc(N(C)S(=O)(=O)c2cccc(C(=O)OCC(=O)N(C)c3ccccc3)c2)cc1 | inconclusive: 29.1 µM [inhibitor, single point] | –
O=C1CC(c2ccccc2)Oc2ccccc21 (stereo not given) | inconclusive: 20.6 µM [inhibitor, single point] | –
COc1ccc(C(C)(C)C)cc1NC(=O)CCN1C(=O)C2CCCCC2C1=O (stereo not given) | inconclusive: 18.4 µM [inhibitor, single point] | –
Cc1cc(C)cc(NC(=O)C2CCCN(c3nc(C)cc(C)n3)C2)c1 (stereo not given) | inactive | –
Cc1cc(C)c2nc(N3CCCC(C(=O)NCc4ccccc4F)C3)sc2c1 (stereo not given) | inconclusive: 29.1 µM [inhibitor, single point] | –
CCOC(=O)c1c(C)c(C(=O)NCc2ccccc2OC)c(C)n1C | inconclusive: 22.4 µM [inhibitor, partial curve, poor fit] | –
Cc1ccc(C(=O)NC2CC(C)(C)NC(C)(C)C2)cc1 | inactive | –
CCN(CC(=O)Nc1ccc(NC(C)=O)cc1)C(=O)c1ccc(COc2ccc(C(C)(C)C)cc2)cc1 | inconclusive: 23.1 µM [inhibitor, single point] | –
COc1ccc(NC(=O)COc2cc(O)c3c(c2)OC(C)(C)CC3=O)cc1 | inconclusive: 29.1 µM [inhibitor, single point] | –
CCCc1nc2ccc(Br)cn2c1Cc1cccc(Cl)c1 | active: 6.51 µM | –
Cc1ccc(NC(=S)NCC2CCCO2)c(OC(F)F)c1 (stereo not given) | inactive | –
CCCCOc1cccc(C(=O)N(Cc2cccs2)C2CCS(=O)(=O)C2)c1 (stereo not given) | inconclusive: 29.1 µM [inhibitor, single point] | –
COc1ccc(N2CCN(C(=O)c3ccc4c(c3)N(Cc3cccc(Cl)c3)C(=O)c3ccccc3S4(=O)=O)CC2)cc1 | inactive | –
Cc1ccccc1C(=O)Nc1cc2c(cc1N1CCCCC1)n(C)c(=O)n2C | inactive | –
CCOc1ccccc1NC(=O)[C@@H](NC(=O)c1cccc(S(=O)(=O)N2CCOCC2)c1)C(C)C | inactive | –
CCn1c(=O)n(-c2ccc3c(c2)OCO3)c2nc(-c3cccc(OC)c3OC)nc(C(N)=O)c21 | inactive | –
CCN(CC)Cc1c(C(=O)N/N=C/c2cccc(OCc3ccc(F)cc3)c2)nnn1-c1nonc1N | inactive | –
Cc1ccc2nc(N3CCN(C=O)CC3)nc(-c3ccccc3)c2c1 | inconclusive: 29.1 µM [inhibitor, single point] | –
CCOc1ccc2nc(SCC3CC3(Cl)Cl)[nH]c2c1 (stereo not given) | inconclusive: 16.4 µM [inhibitor, single point] | –
CCOc1ccccc1N(C)C(=O)c1cc2c(s1)-c1ccccc1OC2 | inconclusive: 23.1 µM [inhibitor, single point] | –
CC(C)C(=O)NC(=S)Nc1ccccc1N1CCN(C(=O)c2ccc(Cl)cc2)CC1 | inconclusive: 29.1 µM [inhibitor, single point] | –

Structure (SMILES) | Potency | activity change, negative = growth inhibition
O=C(NC(=S)N(Cc1ccccc1)Cc1ccccc1)c1ccccc1F | inconclusive: 16.4 µM [inhibitor, single point] | –
CCOC(=O)c1sc(N(Cc2ccccc2)C(=O)CN2C(=O)CN(C)C2=O)nc1C | – | inconclusive: -36.6% [inhibitor]
CC(NC(=O)CCl)c1ccccc1Br (stereo not given) | inconclusive: 23.1 µM [inhibitor, single point] | –
CNC(=S)Nc1ccc(C)c(NC(=S)NC)c1 | inactive | –
C=C(C)c1cccc(C(C)(C)NC(=O)N2CCN(c3ccc(OC)cc3)CC2)c1 | inconclusive: 23.1 µM [inhibitor, single point] | –
O=C(Nc1ccc(-c2cnco2)cc1)c1ccccc1 | inactive | –
COc1ccc(NC(=O)CCN2CCN(S(=O)(=O)c3ccc(Br)cc3)CC2)cc1 | inconclusive: 23.1 µM [inhibitor, single point] | –
CCc1ccccc1NC(=O)Cn1c(=O)n(-c2cccc(C)c2)c(=O)c2c1c1cc(OC)ccc1n2C | inconclusive: 2.06 µM [inhibitor, full curve] | –
COc1cnc(-c2ccccn2)nc1Sc1ccccc1Cl | active: 1.46 µM | –
CC(C)C[C@H]1CN([C@@H](Cc2ccc(O)cc2)CN2CCC[C@@H]2CN2C(=S)NC[C@@H]2Cc2ccccc2)C(=S)N1CC1CCCCCC1 | inconclusive: 20.6 µM [inhibitor, single point] | –
CC(C)=CC1C(C(=O)Nc2ccc(S(=O)(=O)N3CCOCC3)cc2)C1(C)C (stereo not given) | inconclusive: 16.4 µM [inhibitor, single point] | –
CC(C)OCCCNC(=O)Cc1ccc(NC(=O)N2CCCCc3ccccc32)cc1 | inconclusive: 29.1 µM [inhibitor, single point] | –
COc1cc(OC)cc(C(=O)NCC(=O)Nc2ccc(C)c(Cl)c2)c1 | inactive | –
N#C/C(=C\c1ccccc1O)C(=O)Nc1cccnc1 | inconclusive: 25.9 µM [inhibitor, single point] | –
CCOC(=O)CC(NC(=O)c1cc2c(=O)n3cccc(C)c3nc2s1)c1ccc(OCC)c(OC)c1 (stereo not given) | inactive | –
O=C(NCC1CCCO1)C1CCCN(S(=O)(=O)c2cc(Cl)ccc2Cl)C1 (stereo not given) | inactive | –
Clc1nc(CN2CCOCC2)nc2sc3c(c12)CCC3 | inactive | –
CN(C)S(=O)(=O)c1ccc(NC(=O)N2CCN(c3cccc(C(F)(F)F)c3)CC2)cc1 | active: 3.66 µM | –
N#CC[C@H](Cc1ccccc1)N1CCN(CCc2ccccc2)CCC1=O | inconclusive: 35.5 µM [inhibitor, single point] | –
CCC(CC)c1nnc(NC(=O)c2cc([N+](=O)[O-])ccc2N2CCOCC2)s1 | – | inconclusive: -32.9% [inhibitor]
Cc1cc(NC(C)c2ccccc2)n2ncc(-c3ccccc3)c2n1 (stereo not given) | inconclusive: 25.9 µM [inhibitor, single point] | –
COCCCn1[nH]c2c3c(ccc2c1=O)C(=O)c1ccccc1C3=O | active: 16.4 µM | –
